Results reported in EPA's CvTdb concentration-time database.
This continues a long series; more values of the same kind are listed elsewhere.

Columns and labels:
Assay in all cases: concentration in plasma after dosing
Rat [1] = details: dosed: 2-Hydroxy-4-methoxybenzophenone, 500 mg/kg, oral, Male, F344
Mouse [2] = details: 12 h; dosed: 2-Hydroxy-4-methoxybenzophenone; 50 mg/kg; iv; Male; B6C3F1
Mouse [3] = details: 4 h; dosed: 2-Hydroxy-4-methoxybenzophenone; 50 mg/kg; iv; Male; B6C3F1
Mouse [4] = details: 0.5 h; dosed: 2-Hydroxy-4-methoxybenzophenone; 500 mg/kg; oral; Female; B6C3F1
Mouse [5] = details: 0.5 h; dosed: 2-Hydroxy-4-methoxybenzophenone; 250 mg/kg; oral; Male; B6C3F1
Rat [6] = details: 1 h; dosed: 2-Hydroxy-4-methoxybenzophenone; 8 mg/kg; iv; Female; F344
Mouse [7] = details: 1.5 h; dosed: 2-Hydroxy-4-methoxybenzophenone; 250 mg/kg; oral; Female; B6C3F1
Mouse [8] = details: 6 h; dosed: 2-Hydroxy-4-methoxybenzophenone; 500 mg/kg; oral; Female; B6C3F1
Mouse [9] = details: 5 min; dosed: 2-Hydroxy-4-methoxybenzophenone; 250 mg/kg; oral; Male; B6C3F1
Rat [10] = details: 2.5 min; dosed: 2-Hydroxy-4-methoxybenzophenone; 100 mg/kg; oral; Female; F344
Mouse [11] = details: 5 min; dosed: 2-Hydroxy-4-methoxybenzophenone; 50 mg/kg; iv; Female; B6C3F1
Mouse [12] = details: 8 h; dosed: 2-Hydroxy-4-methoxybenzophenone; 500 mg/kg; oral; Male; B6C3F1
Rat [13] = details: dosed: 2-Hydroxy-4-methoxybenzophenone, 250 mg/kg, oral, Female, F344
Mouse [14] = details: 8 h; dosed: 2-Hydroxy-4-methoxybenzophenone; 50 mg/kg; iv; Male; B6C3F1
Mouse [15] = details: 0.5 h; dosed: 2-Hydroxy-4-methoxybenzophenone; 500 mg/kg; oral; Male; B6C3F1
Mouse [16] = details: 5 h; dosed: 2-Hydroxy-4-methoxybenzophenone; 250 mg/kg; oral; Female; B6C3F1
Rat [17] = details: 1.5 h; dosed: Perfluorohexanoic Acid; 40 mg/kg; Male; F344
Rat [18] = details: dosed: Perfluorohexanoic Acid, 40 mg/kg, Male, F344
Rat [19] = details: dosed: Perfluorohexanoic Acid, 160 mg/kg, oral, Male, Harlan Sprague Dawley
Rat [20] = details: dosed: Perfluorohexanoic Acid, 160 mg/kg, oral, Female, Harlan Sprague Dawley
Rat [21] = details: dosed: Perfluorohexanoic Acid, 40 mg/kg, oral, Female, Harlan Sprague Dawley
Rat [22] = details: 6 h; dosed: Perfluorohexanoic Acid; 80 mg/kg; oral; Female; Harlan Sprague Dawley
Rat [23] = details: 1 h; dosed: Perfluorohexanoic Acid; 40 mg/kg; oral; Male; Harlan Sprague Dawley
Rat [24] = details: dosed: Perfluorohexanoic Acid, 40 mg/kg, Male, F344; remark: listed apart in the source
Rat [25] = details: dosed: Perfluorohexanoic Acid, 160 mg/kg, oral, Female, Harlan Sprague Dawley; remark: listed apart in the source
Mouse [26] = details: 4 h; dosed: 2-Hydroxy-4-methoxybenzophenone; 50 mg/kg; iv; Male; B6C3F1; remark: listed apart in the source
Rat [27] = details: 5 min; dosed: 2-Hydroxy-4-methoxybenzophenone; 8 mg/kg; iv; Male; F344
Mouse [28] = details: 0.5 h; dosed: 2-Hydroxy-4-methoxybenzophenone; 500 mg/kg; oral; Female; B6C3F1; remark: listed apart in the source
Mouse [29] = details: 5 min; dosed: 2-Hydroxy-4-methoxybenzophenone; 250 mg/kg; oral; Female; B6C3F1
Mouse [30] = details: 10 h; dosed: 2-Hydroxy-4-methoxybenzophenone; 500 mg/kg; oral; Male; B6C3F1
Rat [31] = details: dosed: 2-Hydroxy-4-methoxybenzophenone, 250 mg/kg, oral, Male, F344
Mouse [32] = details: 1.5 h; dosed: 2-Hydroxy-4-methoxybenzophenone; 50 mg/kg; iv; Female; B6C3F1
Mouse [33] = details: 7 h; dosed: 2-Hydroxy-4-methoxybenzophenone; 250 mg/kg; oral; Female; B6C3F1
Rat [34] = details: dosed: 2-Hydroxy-4-methoxybenzophenone, 100 mg/kg, oral, Female, F344
Mouse [35] = details: 1.5 h; dosed: 2-Hydroxy-4-methoxybenzophenone; 250 mg/kg; oral; Female; B6C3F1; remark: listed apart in the source
Rat [36] = details: 0.5 h; dosed: 2-Hydroxy-4-methoxybenzophenone; 8 mg/kg; iv; Male; F344
Rat [37] = details: 5 min; dosed: 2-Hydroxy-4-methoxybenzophenone; 8 mg/kg; iv; Female; F344

COc1ccc(C(=O)c2ccccc2)c(O)c1 [2-Hydroxy-4-methoxybenzophenone]
concentration in plasma [ng/mL]
Details	0.5 h	1 h	6 h	12 h
Rat [1]	117	–	–	35.7
Rat [13]	–	504	30.2	–

Details	concentration in plasma [ng/mL]
Mouse [2]	12.7
Mouse [3]	94.3
Mouse [4]	1470
Mouse [5]	231
Mouse [7]	67.1
Mouse [8]	59.6
Mouse [9]	34.8
Mouse [11]	17900
Mouse [12]	18.6
Mouse [14]	14.3
Mouse [15]	442
Mouse [16]	29.2
Rat [6]	146
Rat [10]	9.55

O=C(O)C(F)(F)C(F)(F)C(F)(F)C(F)(F)C(F)(F)F [Perfluorohexanoic Acid]
Details	concentration in plasma [ng/mL]
Rat [17]	54300
Rat [22]	1010
Rat [23]	36400

Details	concentration in plasma [ng/mL]
Rat [18], 0.75 h	74800
Rat [18], 24 h	267
Rat [19], 0.25 h	142000
Rat [19], 6 h	19800
Rat [20], 1 h	158000
Rat [20], 24 h	91.1
Rat [21], 0.5 h	56200
Rat [21], 9 h	131
Rat [24], 3 h	19600
Rat [24], 5 min	268000
Rat [25], 0.5 h	156000
Rat [25], 9 h	862

O=C(c1ccccc1)c1ccc(O)cc1O [2,4-Dihydroxybenzophenone]
Details	concentration in plasma [ng/mL]
Mouse [26]	184
Mouse [28]	2910
Mouse [29]	74.3
Mouse [30]	99.1
Mouse [32]	53.8
Mouse [33]	34.1
Mouse [35]	266
Rat [27]	72.4
Rat [36]	37.9
Rat [37]	42.5

concentration in plasma [ng/mL]
Details	1 h	1.5 h	6 h	8 h
Rat [31]	–	341	–	101
Rat [34]	285	–	53.3	–
